Assay results as given in article PMC4336329 (PLoS ONE, 2015).
In all, about 310,000 compounds went through this assay and about 14,000 (4.5%) showed an effect of 50% or more. Effects have a minus sign here. The list shows a part of the results.

Molecular target: human ether-à-go-go-related gene (hERG) potassium channel (human, UniProt Q12809)
Assay: primary screen, population patch clamp on CHO cells stably expressing hERG
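Further: peak tail current of the secondary pulse compared with the same well before compound.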

human ether-à-go-go-related gene (hERG) potassium channel, sequence (Q12809 whole entry, looked up): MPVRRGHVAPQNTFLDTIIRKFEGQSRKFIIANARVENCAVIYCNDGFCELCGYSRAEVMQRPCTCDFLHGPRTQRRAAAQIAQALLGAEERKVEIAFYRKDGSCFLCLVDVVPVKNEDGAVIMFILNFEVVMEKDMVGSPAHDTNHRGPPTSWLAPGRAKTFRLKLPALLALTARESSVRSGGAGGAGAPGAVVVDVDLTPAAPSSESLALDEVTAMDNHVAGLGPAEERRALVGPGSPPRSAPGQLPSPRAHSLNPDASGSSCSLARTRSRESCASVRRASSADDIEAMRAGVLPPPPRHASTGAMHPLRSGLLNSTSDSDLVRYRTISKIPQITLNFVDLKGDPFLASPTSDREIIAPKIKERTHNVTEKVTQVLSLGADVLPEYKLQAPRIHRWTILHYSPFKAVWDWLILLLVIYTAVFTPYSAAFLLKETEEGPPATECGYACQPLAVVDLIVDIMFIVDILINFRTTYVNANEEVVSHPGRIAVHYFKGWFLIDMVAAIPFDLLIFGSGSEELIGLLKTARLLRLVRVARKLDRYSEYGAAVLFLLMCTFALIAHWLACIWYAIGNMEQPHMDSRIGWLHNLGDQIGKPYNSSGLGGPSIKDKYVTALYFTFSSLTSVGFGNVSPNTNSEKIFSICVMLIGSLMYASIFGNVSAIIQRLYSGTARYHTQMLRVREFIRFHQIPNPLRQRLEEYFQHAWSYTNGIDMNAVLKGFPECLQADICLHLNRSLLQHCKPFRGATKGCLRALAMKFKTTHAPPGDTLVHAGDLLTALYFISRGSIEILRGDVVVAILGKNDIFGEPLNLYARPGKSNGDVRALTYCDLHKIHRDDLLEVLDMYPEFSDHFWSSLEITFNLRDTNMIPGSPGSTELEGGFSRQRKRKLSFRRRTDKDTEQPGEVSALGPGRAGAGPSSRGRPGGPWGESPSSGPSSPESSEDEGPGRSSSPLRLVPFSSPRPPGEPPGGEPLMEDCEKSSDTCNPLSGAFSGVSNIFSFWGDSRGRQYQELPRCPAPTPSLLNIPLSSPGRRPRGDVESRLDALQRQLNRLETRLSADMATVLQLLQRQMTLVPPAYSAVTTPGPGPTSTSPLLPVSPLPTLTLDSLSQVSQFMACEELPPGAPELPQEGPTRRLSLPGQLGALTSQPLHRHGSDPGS

| SMILES | hERG current change (%, negative = inhibition) at 10uM |
| --- | --- |
| O=[N+]([O-])c1cc(-c2cnc3ccccc3n2)ccc1Oc1ccc(Br)cc1 | -8.32% |
| COc1ccc(OC)c(NC(=O)N2CCCC(C)C2)c1 (stereo not shown) | 12.6% |
| CC(C)c1ccc(CN2C(=O)NC3(CCCCCC3)C2=O)cc1 | 10.3% |
| CN(C)CCCNC(=O)c1cc(C(=O)c2c(Cl)cccc2Cl)c[nH]1 | -9.62% |
| CCOc1ccc(C(=O)/C=C/Nc2ccc(S(=O)(=O)Nc3cc(C)nc(C)n3)cc2)cc1 | -11.5% |
| CC(C)(C)NC(=O)NC(=O)CN1CCCCCCC1 | 29.6% |
| COc1c(F)c(F)c(C(=O)Nc2ccccc2N2CCN(C(C)=O)CC2)c(F)c1F | -6.56% |
| C=CCS/C(N)=N\N=C\c1cc(Br)cc([N+](=O)[O-])c1O | 6.65% |
| Cc1ccc(S(=O)(=O)Nc2ccc3c(c2)n(C)c(=O)n3C)cc1 | 15.2% |
| CCOc1cc(S(=O)(=O)NCC2CCCO2)ccc1F (stereo not shown) | 13.8% |
| O=C(NC1CCCc2ccccc21)c1ccc(CNc2c(N3CCOCC3)c(=O)c2=O)cc1 (stereo not shown) | 10.7% |
| O=C(N/N=C/c1cccc2ccccc12)C(=O)N1CCCC1 | 7.68% |
| COc1cccc(-c2ccc(NC(=O)C3CCCN(Cc4cc(C)[nH]n4)C3)cc2)c1 (stereo not shown) | -36.5% |
| Cc1ccc2c(c1)NC(=O)C(N1CCOCC1)(C(F)(F)F)O2 (stereo not shown) | 13% |
| C=CCN1C(=O)C(CC(=O)NCC)SC1=Nc1ccccc1OC (stereo not shown) | 19.5% |
| COc1cccc(-c2cc(C(F)(F)F)n3ncc(C(=O)NCC4CCCO4)c3n2)c1 (stereo not shown) | -15.1% |
| CC1Oc2ccccc2N(Cc2cccc(F)c2)C1=O (stereo not shown) | 7.56% |
| O=C(CSc1nc2cc(Cl)ccc2o1)c1cccs1 | 1.04% |
| COc1ccc(OC)c(C2NC(=S)NC3=C2N2CCC3CC2)c1 (stereo not shown) | 23.3% |
| COc1ccccc1N1CCN(S(=O)(=O)c2cn(C)c(=O)n(C)c2=O)CC1 | 10.8% |

| SMILES | hERG current change (%, negative = inhibition) at 10uM |
| --- | --- |
| COc1ccc(C2=NOC(CNC(=O)c3ccccc3Br)C2)c(OC)c1 (stereo not shown) | 5.06% |
| CC(C)CCCn1c(O)c(/C=C2/C=CC=N2)c(=O)[nH]c1=O | 6.88% |
| CN(C(=O)c1cccnc1)c1nnc(-c2cnccn2)s1 | 8.06% |
| CCN1CCN(CC(=O)Nc2cccc(C)c2)C(=O)C1=O | 13.9% |
| C=CCn1c(C)cc(-c2csc(N)n2)c1C.Cl | -3.56% |
| CCN(C(=O)C(C)Cl)c1ccccc1 (stereo not shown) | 24.2% |
| COc1ccccc1OCCn1c(SCC(N)=O)nc2ccccc21 | 8.49% |
| N#Cc1c(N)nc2c(c1N)CC(COc1ccccc1)O2 (stereo not shown) | -6.98% |
| O=C(CSCCS(=O)(=O)c1ccc(Cl)cc1)Nc1ccccc1 | -0.34% |
| O=C(Nc1cccc2nsnc12)c1ccc(F)cc1 | -10.7% |
| Clc1cccc(Cl)c1/C=N/Nc1c(Cl)cncc1Cl | 1.19% |
| O=C(NCCSCc1ccco1)Nc1cc(Cl)cc(Cl)c1 | 7.75% |
| O=C(CSc1ncnc2sc3c(c12)CCC3)NCC1CCCO1 (stereo not shown) | -1.35% |
| COc1cccc(OC)c1-c1nn2c(-c3ccco3)nnc2s1 | -14.5% |
| CN(CC(=O)Nc1ccccc1Br)C(=O)c1cccc([N+](=O)[O-])c1 | -7.61% |
| COc1ccc(CCN2CC(C(=O)NCc3ccccc3)CCC2=O)cc1 (stereo not shown) | -8.79% |
| COc1ccc(NC(=O)c2cc(S(=O)(=O)N3CCCC3)c[nH]2)cc1 | 17.9% |
| CC(C)(C)NC(=O)CSc1nnc(CN2CCCCCC2=O)n1-c1ccccn1 | 15.8% |
| Cc1ccc(C(=O)NCC(=O)OCC(=O)NC(C)c2ccccc2)s1 (stereo not shown) | 2.48% |
| COCCCn1c(SCC(=O)NCc2ccco2)nc2sc3c(c2c1=O)CCC3 | -37.3% |

| SMILES | hERG current change (%, negative = inhibition) at 10uM |
| --- | --- |
| O=C(NNC(=O)c1cccnc1)NC1CCCCC1 | 29.3% |
| COc1ccc(N=C2NC(=O)C(CO)(CO)S2)cc1 | 15.7% |
| N#Cc1c(N)[nH]c(=S)c(C#N)c1-c1ccccc1 | 14.9% |
| NC(=O)c1ccc2c(=O)n3c(-c4cc(Cl)c(N)c(Cl)c4)csc3nc2c1 | -17.5% |
| O=C(C1CCC1)N1CCc2cc(S(=O)(=O)N3CCc4ccccc4C3)ccc21 | 4.48% |
| O=C(O)c1ccc(NC(=S)Nc2ccccc2)cc1 | 8.33% |
| CC1C2NC(=O)N(Cc3ccccc3)C1(C)Oc1ccccc12 (stereo not shown) | -7.42% |
| Cc1ccc(S(=O)(=O)NNC(=O)Nc2ccccc2F)c(C)c1 | -7.65% |
| Nc1ccc2nc(SCC(=O)N3CCN(c4ccccc4)CC3)sc2c1 | -13.7% |
| O=C(NC1CCCC1)C(c1ccsc1)N(CCc1ccccc1)C(=O)Cc1cccs1 (stereo not shown) | 14.4% |
| O=[N+]([O-])c1ccc2nc(CCCc3nc4ccc([N+](=O)[O-])cc4[nH]3)[nH]c2c1 | -43.1% |
| CCC(C)N(C(=O)c1csnn1)C(C(=O)NC1CCCC1)c1ccc(F)cc1 (stereo not shown) | 0.39% |
| O=C(COC(=O)/C=C/c1cccc([N+](=O)[O-])c1)NCC1CCCO1 (stereo not shown) | -4.51% |
| Cc1ccccc1N=Nc1c(O)[nH]c2ccccc12 | 15.2% |
| O=C(COC(=O)Cn1cnc2ccccc21)NCCc1ccccc1 | -0.336% |
| O=C1C2CCCN2C(=O)N1CCCN1CCN(c2ccc([N+](=O)[O-])cc2)CC1 (stereo not shown) | -68.3% |
| O=C(N/N=C\c1cccc(Cl)c1)c1ccc(Cn2cc(Br)c([N+](=O)[O-])n2)o1 | -47.9% |
| O=C(Nc1cccc(C(=O)N2CCCc3ccccc32)c1)c1ccccc1 | -25% |
